Laboratory results from publication PMC4336329 (PLoS ONE, 2015).
Screen size: about 310,000 compounds; about 14,000 (4.5%) showed an effect of 50% or more. The effect is printed as a negative number. The list shows a part of the results.

Target: human ether-à-go-go-related gene (hERG) potassium channel (human, UniProt Q12809)
Experiment: primary screen, population patch clamp on CHO cells stably expressing hERG
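Also: peak tail current of the secondary pulse compared with the same well before compound.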

Chain of human ether-à-go-go-related gene (hERG) potassium channel (Q12809 whole entry, looked up): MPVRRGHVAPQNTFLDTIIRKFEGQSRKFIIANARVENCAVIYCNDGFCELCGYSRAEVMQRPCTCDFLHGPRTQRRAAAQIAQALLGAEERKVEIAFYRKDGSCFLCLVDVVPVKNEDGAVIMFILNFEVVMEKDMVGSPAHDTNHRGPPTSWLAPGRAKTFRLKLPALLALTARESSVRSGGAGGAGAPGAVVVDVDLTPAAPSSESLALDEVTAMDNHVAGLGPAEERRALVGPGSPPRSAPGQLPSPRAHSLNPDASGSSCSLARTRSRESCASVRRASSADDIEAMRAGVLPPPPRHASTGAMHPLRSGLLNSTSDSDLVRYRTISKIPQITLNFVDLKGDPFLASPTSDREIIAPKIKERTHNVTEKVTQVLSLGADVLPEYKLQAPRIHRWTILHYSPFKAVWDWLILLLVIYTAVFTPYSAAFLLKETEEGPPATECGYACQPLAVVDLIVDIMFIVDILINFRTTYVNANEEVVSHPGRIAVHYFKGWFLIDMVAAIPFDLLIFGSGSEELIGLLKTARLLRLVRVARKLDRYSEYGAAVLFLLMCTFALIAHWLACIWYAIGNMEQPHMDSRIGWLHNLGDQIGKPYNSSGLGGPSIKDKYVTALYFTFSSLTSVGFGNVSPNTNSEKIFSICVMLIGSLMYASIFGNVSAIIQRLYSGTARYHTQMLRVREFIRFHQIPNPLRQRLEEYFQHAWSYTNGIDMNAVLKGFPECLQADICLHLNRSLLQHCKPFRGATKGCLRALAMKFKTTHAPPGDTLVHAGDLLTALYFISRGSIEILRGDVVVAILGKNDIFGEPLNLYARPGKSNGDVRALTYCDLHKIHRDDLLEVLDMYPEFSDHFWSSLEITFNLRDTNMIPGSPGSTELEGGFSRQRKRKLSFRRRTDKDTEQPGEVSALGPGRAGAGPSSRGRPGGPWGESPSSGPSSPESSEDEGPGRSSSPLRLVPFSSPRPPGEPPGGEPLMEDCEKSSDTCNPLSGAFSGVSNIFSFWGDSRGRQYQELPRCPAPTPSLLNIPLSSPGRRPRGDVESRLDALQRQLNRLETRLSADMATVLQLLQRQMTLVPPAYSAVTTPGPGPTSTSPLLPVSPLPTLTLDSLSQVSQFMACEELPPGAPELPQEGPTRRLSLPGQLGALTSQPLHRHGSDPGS

SMILES | hERG current change (%, negative = inhibition) at 10uM [%]
CN([C@@H](C(=O)OC(C)(C)C)c1ccccc1)S(=O)(=O)c1cccc(S(=O)(=O)N(C)[C@@H](C(=O)OC(C)(C)C)c2ccccc2)c1 | 14.3
CCOc1ccc(C2/C(=C(\O)c3cccc(OC)c3)C(=O)C(=O)N2c2cc(C)on2)cc1OC (centres unmarked) | 8.06
Cc1nc(S(=O)(=O)c2ccc(Cl)cc2)c(N(C)C)o1 | 16.9
Cc1ccc(CN2CCCC(C(=O)c3ccc4c(c3)OCO4)C2)cc1C (centres unmarked) | -64.6
Cc1cc(C(=O)OCC(=O)Nc2cc(S(=O)(=O)N3CCOCC3)ccc2Cl)c(C)o1 | -44.2
O=C(Nc1cccc(-c2nn[nH]n2)c1)c1csc2c1CCCC2 | 7.22
Cc1ccc(-c2c(C(=O)N/N=C/C3CCCCC3)nnn2-c2nonc2N)cc1 | 4.87
Cc1ccc(CCNC(=O)c2ccc(NC3=NC4CS(=O)(=O)CC4S3)cc2)cc1 (centres unmarked) | 10.5
COC(=O)[C@]1(C)CCC[C@@]2(C)C3CC[C@@]4(C)C[C@]3(CCC21)CC(=O)N4 (some centres unmarked) | 8.4
COCCN1C(=O)NC(=O)/C(=C\c2ccc(Br)cc2)C1=O | 29.9
CCOc1cccc(N2C(=O)CC(N(CCc3ccc(OC)c(OC)c3)C(=O)CC)C2=O)c1 (centres unmarked) | 24.9
Cc1ccc(C(NC(=O)C(C)C)c2cc([N+](=O)[O-])c3cccnc3c2O)cc1 (centres unmarked) | -9.48
Cc1ccc(NC(=O)CSc2n[nH]c(-c3cccnc3)n2)c(Br)c1 | 16
COCCn1nnnc1C(c1cccs1)N1CCN(c2cc(C)ccc2C)CC1.Cl (centres unmarked) | -4.62
COc1ccc(S(=O)(=O)N(CC(=O)NCc2ccccn2)c2ccc(Cl)cc2)cc1 | 13.3
COc1cccc(/C(O)=C2/C(=O)C(=O)N(c3cc(C)on3)C2c2cccs2)c1 (centres unmarked) | 16.3
O=S(=O)(c1cccs1)n1cnc2ccccc21 | 7.37
O=C(CCCN1C(=O)c2ccccc2C1=O)N1CCOCC1 | 5.44
Clc1ccc(Cn2c(-c3cccnc3Cl)nc3ccccc32)c(Cl)c1 | -22.1
Cc1ccc(COCCN2CCN(S(=O)(=O)c3ccccc3)CCC2=O)cc1 | -0.87
CCN(Cc1ccccc1)c1ccc(/C=N/NS(=O)(=O)c2cccc([N+](=O)[O-])c2)cc1 | 10.3
FC(F)Oc1ccc(-n2cc(-c3ccc(Cl)cc3)[n+]3c2CCCCC3)cc1.[Br-] | -78.3
COc1cc(/C=N/NC(=O)c2cc(-c3ccccc3OC(C)C)nc3ccccc23)ccc1O | -2.25
COC(=O)CCC(=O)Nc1ccc(S(=O)(=O)N2CCCCCC2)cc1 | -19.6
COc1ccc(Br)cc1CNC(=O)C1CCN(S(=O)(=O)N2CCC(C)CC2)CC1 | -35
O=C(NCC1CCN(Cc2ccc(F)cc2)CC1)Nc1cc(F)ccc1F | -65.1
CCCCCCC(=O)N1C/C=C\C(c2ccc(OC)cc2)N(Cc2ccc(F)cc2)C(=O)C1 (centres unmarked) | -43.7

SMILES | hERG current change (%, negative = inhibition) at 10uM [%]
C/C(=N/NC(=O)CNC(=O)COc1cccc(C)c1)c1ccco1 | -1.9
O=C(O)CCC(=O)Nc1ccc(Sc2ccc([N+](=O)[O-])cc2)cc1 | -16
CC1CCN(CCc2nc3cc(NC(=O)COc4ccccc4)ccc3n2C)CC1 | -68.4
COc1ccc(-c2oc3c(OC)c(OC)c(OC)c(O)c3c(=O)c2OC)cc1OC | 1.37
CCOC(=O)Cc1csc(NC(=O)Nc2cccc(Cl)c2)n1 | 22.5
Cc1ccc(S(=O)(=O)CC(=O)Nc2nc3ccc(S(N)(=O)=O)cc3s2)cc1 | 9.02
Cc1cc[n+]2c3c(cccc13)CCC2.[Cl-] | 17.4
O=C(COC(=O)/C=C/c1cccs1)Nc1nc(-c2cccc(Br)c2)cs1 | 11.1
CC(C)C[C@H](NC(=O)C1CCN(S(=O)(=O)c2ccccc2)CC1)C(=O)NCc1ccncc1 | 12.7
COc1ccccc1CNC(=O)COC(=O)Cc1cccc(F)c1 | 1.78
O=C(Nc1ccc([N+](=O)[O-])cc1)c1cc2ccccc2nc1Cl | -4.85
COc1ccc(C(C)NC(=O)c2ccncc2)cc1OC (centres unmarked) | 11.1
N#Cc1cccc2cnccc12 | 4.95
c1ccc(Sc2nc(N3CCCCC3)nc(N3CCCCC3)n2)nc1 | -38.7
COc1ccc(CC(=O)Nc2ccc(S(=O)(=O)Nc3ncccn3)cc2)cc1 | 6.28
COc1ccc(CC(=O)OCC(=O)Nc2ccc3c(c2)OCCO3)cc1OC | 23.7
O=C(COC(=O)c1ccccc1NS(=O)(=O)c1cc([N+](=O)[O-])ccc1Cl)c1ccccc1 | -9.54
Cc1ccc(N2CC(C(=O)NCCCn3ccnc3)CC2=O)cc1 (centres unmarked) | 1.56
O=C(O)c1ccc(Br)cn1 | 9.73
CC(=O)Nc1ccc(NC(=O)CSc2nc3ccccc3o2)cc1 | 14.2
COc1ccc(-c2nc(SCC(=O)Nc3nccs3)c(-c3ccc(Cl)cc3)[nH]2)cc1 | 9.59
CN(C)c1ccc(S(=O)(=O)NCC(=O)NCc2ccccc2)cc1[N+](=O)[O-] | 5.27
CN1C(=O)NC(c2ccccc2[N+](=O)[O-])C2=C1CC(C)(C)CC2=O (centres unmarked) | 24.8
CN1CCN(CCNC(=O)c2cc3c(=O)n(C)c4ccccc4c3n2C)CC1 | 12.2
COC(=O)c1ccc(N2NC(=O)/C(=C/c3cc(OC)c(OC)c(OC)c3)C2=O)cc1 | 6.87
CS(=O)(=O)c1ccc(C(=O)NCCN2C(=O)S/C(=C\c3cccnc3)C2=O)cc1[N+](=O)[O-] | 1.32
